Measured values as given in the supplement of paper PMC7580552.
Where a name gives a salt, the structure may show the parent alone. Some of the results follow. Repeats are few or missing, and single values can be far off.

Test system: Escherichia coli W3110
Test: planktonic growth (OD600) relative to untreated control; higher = more growth
Conditions: 10 µM; 20-24 h; 30 °C; TB
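Also: stationary (unshaken) cultures in 96-well plates, started at OD600 0.05 from mid-exponential cells, with compounds supplied from DMSO stocks.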

Row | SMILES | planktonic growth [%]
1 | CC(=O)O[C@H]1C[C@@H]2CC[C@@H]3[C@H](CC[C@@]4(C)[C@H]3C[C@H]([N+]3(C)CCCCC3)[C@@H]4OC(C)=O)[C@@]2(C)C[C@@H]1N1CCCCC1 [Vecuronium bromide] | 92
2 | C[C@@H](O)[C@H]1C(=O)N2C(C(=O)O)=C(S[C@@H]3CN[C@H](C(=O)N(C)C)C3)[C@H](C)[C@H]12 [Meropenem] | 20
3 | C[C@@H]1C[C@H]2[C@@H]3C[C@H](F)C4=CC(=O)C=C[C@]4(C)[C@@]3(Cl)[C@@H](O)C[C@]2(C)[C@H]1C(=O)COC(=O)C(C)(C)C [Clocortolone pivalate] | 92
4 | CNCCCC12CCC(c3ccccc31)c1ccccc12 [Maprotiline hydrochloride] | 96
5 | OC(c1cc(C(F)(F)F)nc2c(C(F)(F)F)cccc12)C1CCCCN1 (configuration not stated) [Mefloquine hydrochloride] | 107
6 | O=C(NCCN1CCOCC1)c1ccc(Cl)cc1 [Moclobemide] | 96
7 | CN(C)CCCSC(=N)N [Dimaprit dihydrochloride] | 92
8 | C[C@H](Cc1cc2c(c(C(N)=O)c1)N(CCCO)CC2)NCCOc1ccccc1OCC(F)(F)F [Silodosin] | 106
9 | Cc1onc(-c2c(F)cccc2Cl)c1C(=O)N[C@@H]1C(=O)N2[C@@H]1SC(C)(C)[C@@H]2C(=O)O [Flucloxacillin sodium] | 89
10 | CCN1CCCC(OC(=O)C(c2ccccc2)c2ccccc2)C1 (configuration not stated) [Piperidolate hydrochloride] | 92
11 | NS(=O)(=O)c1cc(Cl)c(Cl)c(S(N)(=O)=O)c1 [Dichlorphenamide] | 111
12 | CCCCCNC(=N)N/N=C/c1c[nH]c2ccc(OC)cc12 [Tegaserod maleate] | 83
13 | CC(C)NC[C@H](O)COc1cccc2ccccc12 [(S)-propranolol hydrochloride] | 102
14 | OCCN1CCN(CCCN2c3ccccc3C=Cc3ccccc32)CC1 [Opipramol dihydrochloride] | 105
15 | CC(=O)CCCCn1c(=O)c2c(ncn2C)n(C)c1=O [Pentoxifylline] | 92
16 | CN1C(=O)OC(C)(C)C1=O [Trimethadione] | 93
17 | CN(C/C=C/c1ccccc1)Cc1cccc2ccccc12 [Naftifine hydrochloride] | 99
18 | O=c1n(CCCN2CCN(c3cccc(Cl)c3)CC2)nc2ccccn12 [Trazodone hydrochloride] | 93
19 | CC1(C)S[C@@H]2[C@H](NC(=O)[C@H](N)c3ccccc3)C(=O)N2[C@H]1C(=O)O [Ampicillin trihydrate] | 18
20 | C/C=C(/C(=C/C)c1ccc(O)cc1)c1ccc(O)cc1 [Dienestrol] | 94
21 | Cc1ncc([N+](=O)[O-])n1CC(C)O (configuration not stated) [Secnidazole] | 113
22 | O=C(O)c1ccccc1OP(=O)(O)O [Fosfosal] | 97
23 | Nc1cc(N2CCCCC2)nc(N)[n+]1[O-] [Minoxidil] | 96
24 | COc1ccc2cc([C@H](C)C(=O)O)ccc2c1 [(S)-Naproxen] | 102

Row | SMILES | planktonic growth [%]
25 | COc1cccc2c1C(=O)c1c(O)c3c(c(O)c1C2=O)C[C@@](O)(C(=O)CO)C[C@@H]3O[C@H]1C[C@H](N)[C@@H](O)[C@H](C)O1 [Epirubicin hydrochloride] | 121
26 | CCCN(CCC)CCc1cccc2c1CC(=O)N2 [Ropinirole hydrochloride] | 91
27 | CC(=O)O[C@H]1C(=O)[C@@]2(C)[C@H]([C@H](OC(=O)c3ccccc3)[C@]3(O)C[C@H](OC(=O)[C@H](O)[C@@H](NC(=O)c4ccccc4)c4ccccc4)C(C)=C1C3(C)C)[C@]1(OC(C)=O)CO[C@@H]1C[C@@H]2O [Paclitaxel] | 106
28 | NC(=O)c1cnccn1 [Pyrazinamide] | 91
29 | O=C(CCNNC(=O)c1ccncc1)NCc1ccccc1 [Nialamide] | 86
30 | N/C(=N\C(=O)c1nc(Cl)c(N)nc1N)NCc1ccccc1 [Benzamil hydrochloride] | 95
31 | CSc1nc2cc(Cl)c(Oc3cccc(Cl)c3Cl)cc2[nH]1 [Triclabendazole] | 59
32 | Cc1nc2ccccn2c(=O)c1CCN1CCC(C(=O)c2ccc(F)cc2)CC1 [Pirenperone] | 87
33 | Cc1cc2c(s1)Nc1ccccc1N=C2N1CCN(C)CC1 [Olanzapine] | 110
34 | CC=CC1=C(C(=O)O)N2C(=O)[C@@H](NC(=O)[C@H](N)c3ccc(O)cc3)[C@H]2SC1 [Cefprozil] | 104
35 | Cc1c(O)c(=O)n(-c2ccccc2)n1C [Antipyrine, 4-hydroxy] | 97
36 | CC(C)OC(=O)C(C)(C)Oc1ccc(C(=O)c2ccc(Cl)cc2)cc1 [Fenofibrate] | 107
37 | CN1CCCN=C1/C=C/c1cccc(O)c1 [Oxantel pamoate] | 102
38 | CC(N)CCCC(C)(C)O (configuration not stated) [Heptaminol hydrochloride] | 86
39 | C[C@@H](O[C@H]1OCCN(Cc2n[nH]c(=O)[nH]2)[C@H]1c1ccc(F)cc1)c1cc(C(F)(F)F)cc(C(F)(F)F)c1 [Aprepitant] | 82
40 | CCc1cccc(CC)c1NC(=O)CN(CC(=O)O)CC(=O)O [Etifenin] | 93
41 | CN/C(=N\CCSCc1nc[nH]c1C)NC#N [Cimetidine] | 92
42 | C/C(=C\C(=O)OCCCCCCCCC(=O)O)C[C@@H]1OC[C@H](C[C@@H]2O[C@H]2[C@@H](C)[C@H](C)O)[C@@H](O)[C@H]1O [Mupirocin] | 56
43 | O=C(O)c1cc(/N=N/c2ccc(S(=O)(=O)Nc3ccccn3)cc2)ccc1O [Sulfasalazine] | 94
44 | CN1CCCN(C(c2ccccc2)c2ccc(Cl)cc2)CC1 (configuration not stated) [Homochlorcyclizine dihydrochloride] | 102
45 | C[C@@H]1C[C@H]2[C@@H]3CCC4=CC(=O)C=C[C@]4(C)[C@@]3(Cl)[C@@H](O)C[C@]2(C)[C@@]1(OC(=O)c1ccco1)C(=O)CCl [Mometasone furoate] | 98
46 | CCOc1ccc2nc(S(N)(=O)=O)sc2c1 [Ethoxzolamide] | 89
47 | Nc1ncnc2c1ncn2C1OC(COP(=O)(O)O)C(O)C1O (configuration not stated) [Adenosine 5'-monophosphate monohydrate] | 100
48 | CCCCc1ccc2[nH]c(NC(=O)OC)nc2c1 [Parbendazole] | 98

Row | SMILES | planktonic growth [%]
49 | CN1CCN(C(c2ccccc2)c2ccccc2)CC1 [Cyclizine hydrochloride] | 95
50 | CN(c1nccc(=O)[nH]1)C1CCN(c2nc3ccccc3n2Cc2ccc(F)cc2)CC1 [Mizolastine] | 101
51 | O=C(O)c1ccccc1C(=O)Nc1ccc(S(=O)(=O)Nc2nccs2)cc1 [Phthalylsulfathiazole] | 90
52 | OCCN(CCO)c1nc(N2CCCCC2)c2nc(N(CCO)CCO)nc(N3CCCCC3)c2n1 [Dipyridamole] | 99
53 | Nc1c2ccccc2nc2ccccc12 [Aminacrine] | 130
54 | CN1CCC(=C2c3ccccc3Sc3ccccc32)CC1 [Pimethixene maleate] | 92
55 | N[C@@H](Cc1cc(I)c(Oc2ccc(O)c(I)c2)c(I)c1)C(=O)O [Liothyronine] | 89
56 | COC(=O)C1=C(C#N)NC(C)=C(C(=O)OC(C)C)C1c1cccc([N+](=O)[O-])c1 (configuration not stated) [Nilvadipine] | 106
57 | CC1CC(OC(=O)c2ccccc2O)CC(C)(C)C1 (configuration not stated) [Homosalate] | 113
58 | NC[C@@H]1O[C@@H](O[C@H]2[C@H](O)[C@@H](O[C@H]3O[C@H](CO)[C@@H](O)[C@H](N)[C@H]3O)[C@H](N)C[C@@H]2N)[C@@H](O)[C@H](O)[C@H]1O [Kanamycin A sulfate] | 93
59 | O=C(CCCN1CCN(c2ccccn2)CC1)c1ccc(F)cc1 [Azaperone] | 100
60 | C[C@H](CCC(=O)O)[C@H]1CC[C@H]2[C@@H]3[C@@H](O)C[C@@H]4C[C@H](O)CC[C@]4(C)[C@H]3CC[C@]12C [Urosiol] | 99
61 | C#C[C@]1(O)CC[C@H]2[C@@H]3CCC4=CCCC[C@@H]4[C@H]3CC[C@@]21C [Lynestrenol] | 93
62 | CC[C@@H]1C(=O)OC[C@@H]1Cc1cncn1C [Pilocarpine nitrate] | 108
63 | Cc1c(NC(=O)c2cccnc2)c(=O)n(-c2ccccc2)n1C [Nifenazone] | 92
64 | CS(=O)(=O)OCCCCOS(C)(=O)=O [Busulfan] | 109
65 | NS(=O)(=O)c1cc2c(cc1C(F)(F)F)NCNS2(=O)=O [Hydroflumethiazide] | 88
66 | CC(=O)NS(=O)(=O)c1ccc(N)cc1 [Sulfacetamide sodic hydrate] | 68
67 | Cc1cn([C@H]2C=C[C@@H](CO)O2)c(=O)[nH]c1=O [Stavudine] | 96
68 | C=CC1=C(C(=O)O)N2C(=O)[C@@H](NC(=O)/C(=N\O)c3csc(N)n3)[C@H]2SC1 [Cefdinir] | 16
69 | COc1cccc2c1C(=O)c1c(O)c3c(c(O)c1C2=O)C[C@@](O)(C(C)=O)C[C@@H]3O[C@H]1C[C@H](N)[C@H](O)[C@H](C)O1 [Daunorubicin hydrochloride] | 87
70 | CC(=O)CC(c1ccccc1)c1c(O)c2ccccc2oc1=O (configuration not stated) [Warfarin] | 98
71 | CO[C@@H]1[C@@H](O[C@@H]2O[C@H](C)[C@@H](O[C@H]3C[C@@](C)(O)[C@@H](OC(=O)CC(C)C)[C@H](C)O3)[C@H](N(C)C)[C@H]2O)[C@@H](CC=O)C[C@@H](C)[C@@H](O)/C=C/C=C/C[C@@H](C)OC(=O)C[C@H]1OC(C)=O [Josamycin] | 92
72 | CC(=O)OCC(=O)[C@@]12OC(C)(C)O[C@@H]1C[C@H]1[C@@H]3C[C@H](F)C4=CC(=O)C=C[C@]4(C)[C@@]3(F)[C@@H](O)C[C@@]12C [Fluocinonide] | 91
